Reference: publication PMC4336329 (PLoS ONE, 2015)
Screen size: about 310,000 compounds; about 14,000 (4.5%) showed an effect of 50% or more. Effects have a minus sign here. The list shows a part of the results.

target: human ether-à-go-go-related gene (hERG) potassium channel (human, UniProt Q12809); experiment: primary screen, population patch clamp on CHO cells stably expressing hERG
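Also: peak tail current of the secondary pulse compared with the same well before compound.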

Sequence of human ether-à-go-go-related gene (hERG) potassium channel (Q12809 whole entry, looked up): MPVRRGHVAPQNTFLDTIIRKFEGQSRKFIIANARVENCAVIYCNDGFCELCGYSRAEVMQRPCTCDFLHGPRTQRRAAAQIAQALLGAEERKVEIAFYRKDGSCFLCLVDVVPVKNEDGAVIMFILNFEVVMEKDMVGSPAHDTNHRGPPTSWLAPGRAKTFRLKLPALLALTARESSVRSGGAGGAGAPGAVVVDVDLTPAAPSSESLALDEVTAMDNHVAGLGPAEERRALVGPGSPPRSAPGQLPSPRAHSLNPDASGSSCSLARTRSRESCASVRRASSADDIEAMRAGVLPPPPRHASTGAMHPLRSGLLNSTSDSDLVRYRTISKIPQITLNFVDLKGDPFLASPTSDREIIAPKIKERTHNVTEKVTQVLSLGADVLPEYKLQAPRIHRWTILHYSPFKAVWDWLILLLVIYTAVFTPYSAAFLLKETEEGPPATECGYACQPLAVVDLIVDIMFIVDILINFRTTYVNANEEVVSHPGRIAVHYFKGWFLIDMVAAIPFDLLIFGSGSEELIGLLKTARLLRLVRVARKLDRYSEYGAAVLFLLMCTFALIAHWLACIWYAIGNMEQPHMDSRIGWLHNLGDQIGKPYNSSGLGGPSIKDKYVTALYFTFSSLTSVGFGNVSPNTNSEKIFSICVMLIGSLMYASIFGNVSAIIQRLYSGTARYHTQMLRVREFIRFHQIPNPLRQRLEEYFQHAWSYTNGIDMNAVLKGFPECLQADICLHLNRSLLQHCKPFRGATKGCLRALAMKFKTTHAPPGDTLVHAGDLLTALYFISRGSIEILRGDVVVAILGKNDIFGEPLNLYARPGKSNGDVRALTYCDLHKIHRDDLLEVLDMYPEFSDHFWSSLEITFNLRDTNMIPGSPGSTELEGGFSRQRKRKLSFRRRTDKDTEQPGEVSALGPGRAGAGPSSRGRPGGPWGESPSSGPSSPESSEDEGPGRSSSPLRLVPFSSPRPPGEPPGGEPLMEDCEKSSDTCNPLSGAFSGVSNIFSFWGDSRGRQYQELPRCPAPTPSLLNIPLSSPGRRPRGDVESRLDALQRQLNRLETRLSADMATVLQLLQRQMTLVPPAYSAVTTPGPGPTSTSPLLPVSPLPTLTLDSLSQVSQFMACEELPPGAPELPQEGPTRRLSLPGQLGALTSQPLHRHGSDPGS

Point of comparison: Cc1ccc(C23CC4CC(CC(NC(=O)N5CCN(C)CC5)(C4)C2)C3)cc1, “hERG current change (%, negative = inhibition) at 10uM” value -4.66%. Against it:
- CC12CCC(=O)N1C(C(=O)NCc1ccc(Cl)cc1Cl)CS2 (stereo not shown) — higher, -0.564%
- Cc1cccc(C(=O)NCC(=O)OCC(=O)NC2CCCCCCC2)c1 — higher, 9.01%
- CCC(=O)N1c2ccccc2-c2nnc(SC)nc2OC1c1ccc(OC)c(OC)c1 (stereo not shown) — higher, 9.41%
- COc1ccc(CC(=O)N2CCc3ccccc32)cc1 — higher, 1.76%
- FC(F)(F)c1cc(-c2ccccc2)nc(-n2cncn2)n1 — lower, -17.9%
- COC(=O)c1ccc(CSc2nncn2N)cc1 — higher, 17.6%
- Cc1cc(C)n(-c2ccc(C(=O)OCC(=O)Nc3ccc(S(=O)(=O)N4CCOCC4)cc3)cc2)n1 — higher, 6.51%
- COC(=O)CCn1nc(-c2ccc(Cl)cc2)c2ccccc2c1=O — lower, -11.7%
- Cc1cc(-c2nc3ccccc3[nH]2)ccc1N — higher, 23.1%
- COc1ccc(C(=O)NCCCNC(=O)c2ccccn2)cc1 — higher, 10.8%
- COc1ccc(OCC(=O)N/N=C/C=C/c2ccccc2)cc1 — lower, -16.3%
- Cc1cc(NC(=O)Cn2nnc3sc4c(c3c2=O)CCC(C(C)(C)C)C4)no1 (stereo not shown) — higher, -1.9%
- CC(C)C(C)(C#N)NC(=O)CSc1nc2scc(-c3ccccc3)c2c(=O)[nH]1 (stereo not shown) — higher, 7.84%
- Nn1c(SCC(=O)Nc2ccc3c(c2)OCO3)nnc1-c1cccc(Cl)c1 — higher, -3.9%
- O=C(CCc1nnc2ccc(NCc3ccccc3Cl)nn12)NC1CCCC1 — higher, 13%
- CC(Sc1nnnn1C1CCCC1)C(=O)Nc1cccc(S(=O)(=O)N2CCOCC2)c1 (stereo not shown) — lower, -18.2%
- COc1ccc(-c2noc(CNC(=O)C(C)Oc3ccccc3)n2)cc1 (stereo not shown) — lower, -22.1%
- CO/N=C(/CS(=O)(=O)c1ccc(Br)cc1)c1ccc(OC)cc1 — lower, -9.66%
- COc1ccc2nc(NC(=O)CSCC(=O)Nc3cc(C)on3)sc2c1 — higher, 5.23%
- O=Cc1ccc(OCc2cccc(C(F)(F)F)c2)cc1O — higher, 21.1%
- O=C(O)c1ccc(CNC(=O)c2ccc3c(c2)C(=O)N(Cc2cccnc2)C3=O)cc1 — higher, 4.01%
- COC(=O)c1ccc(NC(=O)Cn2nc(C(=O)Nc3ccc(C)cc3)ccc2=O)cc1 — higher, 7.09%
- O=C1c2ccccc2C(=O)N1CCC(O)C[N+](=O)[O-] (stereo not shown) — higher, 17.8%
- COc1ccc(-n2cc(CNCCN3CCOC3=O)c(-c3ccccc3Cl)n2)cc1 — lower, -18.5%
- CCC(C)NC(=O)c1ccccc1SC (stereo not shown) — higher, 23.3%
- COc1cccc(CNC(=O)CCCn2c(=S)[nH]c3cc4c(cc3c2=O)OCO4)c1 — higher, 13.4%
- COc1cccc(NC(=O)CNC(=O)N2CC(=O)Nc3ccccc32)c1 — higher, 7.86%
- Cn1c(=O)c2c(nc(NCCc3ccccc3)n2CC(=O)NCCc2ccccc2)n(C)c1=O — higher, 6.57%
- CC(C)c1ccc2c(c1)C(N1CCNCC1)Cc1ccc(F)cc1S2.O.O=C(O)/C=C\C(=O)O (stereo not shown) — higher, 5.51%
- O=C(CCOc1ccccc1)Nc1ccc([N+](=O)[O-])cc1 — lower, -34.7%
- Cc1cccn2cc(-c3cccc(S(=O)(=O)N4CCCCC4)c3)nc12 — lower, -14%
- O=C(CCN1C(=O)c2ccccc2C1=O)NCc1ccccc1 — higher, 10.2%
- O=C(NCC1CCCO1)NC1CCCCC1 (stereo not shown) — higher, 18.3%
- CC(=O)Nc1ccc(-c2nc3ccccc3o2)cc1 — lower, -19.8%
- COc1ccc(C(=O)N2CCCC(Nc3ccc(F)cc3)C2)c(OC)c1 (stereo not shown) — higher, 11.1%
- CCN1C(=O)c2cccc3c(NC(=O)c4ccc(OC)c(OC)c4)ccc1c23 — lower, -68.3%
- CC(=O)c1cccc(OCC(=O)N(Cc2ccco2)c2c(N)n(Cc3ccccc3)c(=O)[nH]c2=O)c1 — higher, -1.06%
- Cc1cc(C)nc(SC2CCCCC2NS(=O)(=O)c2ccc(Cl)cc2)n1 (stereo not shown) — lower, -14.7%
- O=C(Oc1ccc2c(-c3ccccc3)cc(=O)oc2c1)C1CCCCC1 — higher, 9.18%
- CCCCCCC(=O)N/N=C/c1c(O)n(C(C)CC)c(=S)[nH]c1=O (stereo not shown) — higher, 17.1%
- COc1cc(OC)cc(C(=O)NNC(=O)C2CSC3(C)CCC(=O)N23)c1 (stereo not shown) — higher, 18.3%
- CC[C@H](C)[C@H](NC(=O)[C@H](Cc1ccc(O)cc1)NC(=O)[C@@H](N)C(C)C)C(=O)N[C@@H](Cc1cnc[nH]1)C(=O)N1CCC[C@H]1C(=O)N[C@@H](Cc1ccccc1)C(=O)O — higher, 4.75%
